This is an account of results in PubChem BioAssay AID463173 (ICCB-Longwood Screening Facility, Harvard Medical School, 2010).

In all, about 52,000 compounds went through this assay and about 4,300 (8.3%) were called active. No stated cut-off is given here; in the data, active means survival mostly below about 52% (no sharp cut-off); inactive means mostly above about 56%. The list shows a part of the results.

In this experiment the test system is DeltatarO mutant. Briefly: growth inhibition of S. aureus wild type versus tarO mutant, primary screen, teichoic acid synthesis inhibitors, RN4220, OD600 (AID 463173). Conditions: OD600, 18 h, hits give low values, screened at 18.75 µg/mL (by protocol).
As to `C=Cc1ccc(Cn2c(C(=O)O)c(CNCc3ccccc3)c3ccc(C)cc32)cc1`, the survival is inactive: 120%. Then `CC1=C(C(=O)Nc2cccnc2)C(c2ccccc2)n2nc(-c3ccc(O)cc3)nc2N1` (stereo unspecified), with inactive: 79%; and `Cc1ccc(C2CCN(C(=O)c3cnn(-c4ccc(C)cc4)c3C3CCN(C(=O)OC(C)(C)C)CC3)C2)cc1` (stereo unspecified), with inactive: 105%.

Regarding `CC(=O)Nc1ccc(NC(=O)c2oc3ccc4c(c3c2C)C(=O)CC(C)(C)O4)cc1`, the survival is inactive: 75%.

Regarding `O=c1c(N2CCc3ccccc3C2)csc2ccccc12`, the survival is inactive: 78%. Next, `O=C(NCCc1ccccc1)c1ccc2c(c1)N(Cc1ccccc1F)C(=O)c1ccccc1S2=O` (stereo unspecified): inactive: 74%. As to `Cc1c(Cl)cccc1NC(=O)c1ncn(-c2ccccc2)n1`, the survival is inactive: 90%. Next, `COc1cccc(NC(=O)CC(C)S(=O)(=O)c2ccc3c(c2)NC(=O)CO3)c1` (stereo unspecified): inactive: 115%.

For the compound `Cc1ccc2cc(CN(CC3CCCO3)C(=O)C3CCC3)c3nnnn3c2c1` (stereo unspecified), the survival was inactive: 95%. As to `O=C(N1CCCC1)N1c2ccccc2C=Cc2ccccc21`, the survival is inactive: 106%. As for `Cc1ccc(-c2csc(=Nc3ccc(F)cc3)n2Cc2ccc3c(c2)OCO3)cc1C`, the survival is inactive: 80%. Next, `CCOc1ccccc1NS(=O)(=O)c1ccc(-c2cnc(C3CC3)o2)cc1`: inactive: 74%; `COc1cc(OC)cc(C(=O)Nc2ccc(S(=O)(=O)Nc3ncccn3)cc2)c1`: inactive: 82%; `Cc1nc2nncn2c(NCc2ccc(F)cc2)c1C`: inactive: 84%. Next, `O=C(Nc1nnc(S(=O)(=O)Nc2ccccc2)s1)c1ccccc1Cl`: inactive: 52%; `CCc1noc(-c2ccc(N3CCCCC3C)c([N+](=O)[O-])c2)n1` (stereo unspecified): inactive: 114%; `O=C(NCc1ccc2c(c1)CCN2C(=O)c1ccc(Cl)cc1)c1cccc(F)c1`: inactive: 61%.

Regarding `Cc1ccc(NC(=O)CCS(=O)(=O)c2cc3c4c(c2)CCN4C(=O)CC3)c(C)c1`, the survival is inactive: 88%. Then `Cc1cccc(C(=O)Nc2nnc(S(=O)(=O)N(C)Cc3ccco3)s2)c1`, with active: 25%. Then `CC1CCCN(c2ncccc2C(=O)NCC2CCCO2)C1` (stereo unspecified), with inactive: 85%. Next, `COc1ccc(CCNC(=O)CSc2nc(-c3ccc(F)cc3)cc(C(F)(F)F)n2)cc1OC`: inactive: 77%; `Cc1nn(-c2ccccc2)c2sc(C(=O)Nc3ccccc3Br)cc12`: active: 9%.

For the compound `Cc1ccc(NC(=O)CN2C(=O)C3(SCC(=O)N3c3cccc(Cl)c3)c3ccccc32)cc1C` (stereo unspecified), the survival was inactive: 78%. As to `Cc1ccc(NS(=O)(=O)c2ccc3c(c2)CCCN3C(=O)C2CCC2)cc1Cl`, the survival was inactive: 107%. In the case of `Nc1c(C(=O)Nc2ccc(C(=O)O)cc2)sc2nc3c(cc12)CCCC3`, the survival is active: 42%. `Cc1ccc(-c2nc3c(c(SCC(=O)Nc4ccccc4Cl)n2)Cc2c(CO)cnc(C)c2O3)cc1`: the survival is active: 46%. In the case of `CCOC(=O)c1c(S(=O)(=O)NCC(=O)NCc2cccc(C)c2)c(C)n(C)c1C`, the survival was inactive: 84%. Then `Cc1ccc(CS(=O)(=O)c2ncc(Cl)c(C(=O)Nc3nc4ccc(F)cc4s3)n2)cc1`, with active: 9%; and `CCC(Oc1ccccc1)C(=O)Nc1cc(-c2ccccc2OC)nn1-c1ccccc1` (stereo unspecified), with inactive: 75%; and `Cc1cc(Cl)nc(-c2ccccc2)n1`, with inactive: 91%. Regarding `O=C(N/N=C/c1cn(-c2ccccc2)nc1-c1ccccc1)c1ccco1`, the survival was inactive: 77%.

For the compound `COC(=O)CN1C(=O)c2ccccc2NC1c1ccc(OC)cc1` (stereo unspecified), the survival was inactive: 78%. `CC1CCC(NC(=O)c2ccc3c(c2)N(Cc2ccccc2F)C(=O)c2ccccc2S3=O)CC1` (stereo unspecified): the survival is inactive: 80%.

For `CCOc1ccc(CCNC(=O)Cn2ncn3c(cc4sc(C)cc43)c2=O)cc1OCC`, the survival was inactive: 71%. Turning to `COc1ccc2c(c1)sc1ncc(C(=O)NCc3ccc(Cl)cc3)c(=O)n12`, the survival was inactive: 58%.

As for `CCN1CCN(c2oc(/C=C/c3ccc(OC)c(OC)c3)nc2C#N)CC1`, the survival was inactive: 66%. On to `Clc1ccc(-c2cn3ncsc3n2)cc1`, for which the survival was inactive: 66%. Next, `COc1ccc(-n2cc(C(=O)OCc3ccc(F)c(F)c3)c3ccccc3c2=O)cc1`: inactive: 98%; `CCc1ccc(NS(=O)(=O)c2ccc3[nH]cc(C(=O)NCCc4cccc(C)c4)c(=O)c3c2)cc1`: inactive: 67%; `CCCN1C2CCCC1CC(NC(=O)c1cc(OC)c(OC)c(OC)c1)C2` (stereo unspecified): inactive: 97%. As for `Cc1ccc(OC(=O)c2cc(-c3ccc(Cl)cc3)on2)c(C)c1`, the survival is inactive: 92%. Take `Cc1cccc(N2CCN(C(=O)CCc3c(C)nc4c(c3C)c(=O)n(C)c(=O)n4C)CC2)c1C`: the survival is inactive: 93%. With `COc1ccc(C2C(=O)N(C3CCCCC3)CC(=O)N2CCC2=CCCCC2)cc1` (stereo unspecified), the survival is inactive: 88%. Next, `O=C(NC1(C(F)(F)F)C(=O)Nc2c1c(=O)[nH]c(=O)n2-c1ccc(F)cc1)c1ccccc1` (stereo unspecified): inactive: 80%; `CCOc1ccc(-n2c(=O)c3sc4ccccc4c3n(Cc3cccc(C)c3)c2=O)cc1`: inactive: 127%; `CCOC(=O)Cc1nnc2c(Nc3cc(C)ccc3C)nc3nonc3n12`: inactive: 101%.

`COc1ccc(NC(=O)Cn2c3ncccc3c(=O)n2-c2ccc(C)c(C)c2)c(OC)c1`: the survival is inactive: 107%. Then `O=S(=O)(Nc1ccc2nc(-c3ccc(F)cc3)oc2c1)c1ccccc1`, with active: 32%; and `CCOCCCNC(=O)C(c1ccc(OC)cc1)N(Cc1ccc2c(c1)OCO2)C(=O)c1ccc(NC(C)=O)cc1` (stereo unspecified), with inactive: 50%. As for `CCCCc1nn2c(=O)cc(COC(=O)c3ccc(NC(=O)c4ccccc4Cl)cc3)nc2s1`, the survival was inactive: 89%. Consider `COc1cccc(CNC(=O)C(NS(=O)(=O)c2cccs2)C(C)C)c1` (stereo unspecified), for which the survival is inactive: 80%.

With `COc1cccc(CNC(=O)c2ccc3nc(N4CCCCC4)sc3c2)c1OC`, the survival was inactive: 50%. Turning to `Cc1ccc(CN2CCSc3ccc(C(=O)N4CCN(c5ccc(Cl)cc5)CC4)cc32)cc1`, the survival is inactive: 72%.

Turning to `CCCCN1C(=O)c2[nH]nc(-c3ccccc3O)c2C1c1cc(Br)c(O)c(OC)c1` (stereo unspecified), the survival was active: 2%. Regarding `O=c1c2cccnc2n(Cc2ccccc2F)c(=O)n1Cc1ccc(F)cc1`, the survival was inactive: 78%. As for `Cc1ccc(C)c2[nH]c(=O)c(C3NC(=O)c4ccccc4N3)cc12` (stereo unspecified), the survival was inactive: 86%.
